195 variants from a collection of fitness landscapes (doi:10.1126/science.1257360) can be followed below.

The other results are listed elsewhere or left out.

B1: PhoQ; a variant is named by its letters at X, in order, P23837 (parent)
chain: MKKLLRLFFPLSLRVRFLLATAAVVLVLSLAYGMVALIGYSVSFDKTTFRLLRGESNLFYTLAKWENNKLHVELPENIDKQSPTMTLIYDENGQLLWAQRDVPWLMKMIQPDWLKSNGFHEIEADVNDTSLLLSGDHSIQQQLQEVREDDDDAEMTHSVAVNVYPATSRMPKLTIVVVDTIPVELKSSYMVWSWFIYVLSANLLLVIPLLWVAAWWSLRPIEALAKEVRELEEHNRELLNPATTRELTSLVRNLNRLLKSERERYDKYRTTLTDLTHSLKTPLXXLQXXLRSLRSEKMSVSDAEPVMLEQISRISQQIGYYLHRASMRGGTLLSRELHPVAPLLDNLTSALNKVYQRKGVNISLDISPEISFVGEQNDFVEVMGNVLDNACKYCLEFVEISARQTDEHLYIVVEDDGPGIPLSKREVIFDRGQRVDTLRPGQGVGLAVAREITEQYEGKIVAGESMLGGARMEVIFGRQHSAPKDE

The variants in the assay derive from B1. In words: enrichment ratio after two sorts for PhoP signalling (ratio (wild type AVST 3.29)); higher = more functional. Conditions: with PhoP (E. coli).
For DVWI, the enrichment ratio was no more than 0.25.
Next, GWRR: no more than 0.25.
Turning to RGWW, the enrichment ratio was no more than 0.25.
Take RKLF: the enrichment ratio is no more than 0.25.
With LRMG, the enrichment ratio was no more than 0.25.
Consider LPDM, for which the enrichment ratio was no more than 0.25.
For SRGN, the enrichment ratio is no more than 0.25.
Then DDVG, with no more than 0.25; and IQGK, with no more than 0.25; and EMCQ, with no more than 0.25.
Consider WHWT, for which the enrichment ratio was no more than 0.25.
QQEC: the enrichment ratio was no more than 0.25.
For PDPS, the enrichment ratio is no more than 0.25.
PAKG: the enrichment ratio is no more than 0.25.
For the variant SMKK, the enrichment ratio is no more than 0.25.
On to SMTH, for which the enrichment ratio is 4.57.
As to WHIE, the enrichment ratio is no more than 0.25.
Take DEQR: the enrichment ratio is no more than 0.25.
In the case of NPIN, the enrichment ratio is no more than 0.25.
On to ELMK, for which the enrichment ratio was no more than 0.25.
For the variant INSH, the enrichment ratio was no more than 0.25.
RWEA: the enrichment ratio was no more than 0.25.
On to LEDH, for which the enrichment ratio is no more than 0.25.
As for DECN, the enrichment ratio is no more than 0.25.
For the variant ATMP, the enrichment ratio was no more than 0.25.
As for NHSA, the enrichment ratio was no more than 0.25.
For the variant QNVS, the enrichment ratio is no more than 0.25.
Then YRMG, with no more than 0.25; and PMNC, with no more than 0.25.
As for IKLC, the enrichment ratio was no more than 0.25.
As for ICLG, the enrichment ratio amounted to 8.57.
As to TIFH, the enrichment ratio was no more than 0.25.
Turning to PVFC, the enrichment ratio is no more than 0.25.
Regarding MTDC, the enrichment ratio is no more than 0.25.
Regarding IEHQ, the enrichment ratio was no more than 0.25.
Next, MVPG: no more than 0.25; AMSV: 6.73; WCHF: no more than 0.25.
MTKH: the enrichment ratio was no more than 0.25.
For VAHC, the enrichment ratio was no more than 0.25.
For LTAW, the enrichment ratio came to 1.45.
For EYLG, the enrichment ratio was no more than 0.25.
For YTKC, the enrichment ratio is no more than 0.25.
In the case of VWCL, the enrichment ratio is no more than 0.25.
For EANS, the enrichment ratio is no more than 0.25.
On to RSDM, for which the enrichment ratio is no more than 0.25.
Consider NCLH, for which the enrichment ratio is no more than 0.25.
Next, RYVR: no more than 0.25.
For the variant VVAW, the enrichment ratio was no more than 0.25.
Turning to EVKT, the enrichment ratio is no more than 0.25.
As to KMAP, the enrichment ratio is no more than 0.25.
On to RGYE, for which the enrichment ratio was no more than 0.25.
Turning to MHGK, the enrichment ratio is no more than 0.25.
Then KQDP, with no more than 0.25; and LIGT, with no more than 0.25.
For the variant DAHP, the enrichment ratio is no more than 0.25.
In the case of SSTM, the enrichment ratio worked out at 21.4.
Then HSKC, with no more than 0.25; and TQLY, with 9.77.
Regarding YRQR, the enrichment ratio was no more than 0.25.
As for QTCF, the enrichment ratio was no more than 0.25.
As to KMHF, the enrichment ratio is no more than 0.25.
Then SSLN, with 6.84; and GNEY, with no more than 0.25.
As for IEHW, the enrichment ratio was no more than 0.25.
Regarding SYNF, the enrichment ratio was no more than 0.25.
As for ITAK, the enrichment ratio was no more than 0.25.
For the variant HHTK, the enrichment ratio was no more than 0.25.
Next, GSYY: no more than 0.25; YQIN: no more than 0.25.
Take FDTG: the enrichment ratio is no more than 0.25.
On to EYSI, for which the enrichment ratio was no more than 0.25.
Next, KGRH: no more than 0.25; NFAA: no more than 0.25.
Take SIWR: the enrichment ratio was no more than 0.25.
Turning to GARG, the enrichment ratio was no more than 0.25.
Then WKYW, with no more than 0.25; and LNTT, with no more than 0.25; and YAWH, with no more than 0.25.
As to DMFM, the enrichment ratio is no more than 0.25.
Take DAWN: the enrichment ratio is no more than 0.25.
Consider GCII, for which the enrichment ratio is 18.2.
Take VITS: the enrichment ratio was no more than 0.25.
Regarding SEGV, the enrichment ratio came to 11.7.
As to FGRS, the enrichment ratio was no more than 0.25.
Take DKWP: the enrichment ratio is no more than 0.25.
With FWSL, the enrichment ratio is no more than 0.25.
Regarding QEFS, the enrichment ratio was determined as 10.5.
For the variant SLRV, the enrichment ratio was no more than 0.25.
Then MFQK, with no more than 0.25; and TWPI, with no more than 0.25.
As to FQYF, the enrichment ratio was no more than 0.25.
In the case of PTTY, the enrichment ratio was no more than 0.25.
Next, HQDM: no more than 0.25.
KLWD: the enrichment ratio is no more than 0.25.
WNPI: the enrichment ratio is no more than 0.25.
Regarding MTYK, the enrichment ratio is no more than 0.25.
With QREW, the enrichment ratio was no more than 0.25.
Then DHQD, with no more than 0.25; and QNYC, with no more than 0.25.
As to WTDL, the enrichment ratio was no more than 0.25.
As for YLMG, the enrichment ratio was no more than 0.25.
Turning to VLTD, the enrichment ratio is no more than 0.25.
On to HHKQ, for which the enrichment ratio was no more than 0.25.
SEFA: the enrichment ratio amounted to 1.84.
As for IHCF, the enrichment ratio is no more than 0.25.
In the case of SMPR, the enrichment ratio is no more than 0.25.
For HHHD, the enrichment ratio is no more than 0.25.
Consider HKLN, for which the enrichment ratio is no more than 0.25.
Consider LLRL, for which the enrichment ratio is no more than 0.25.
As to NLAL, the enrichment ratio was 0.332.
On to APNH, for which the enrichment ratio was no more than 0.25.
Then DLTG, with no more than 0.25.
As to YRWN, the enrichment ratio was no more than 0.25.
Consider NTEF, for which the enrichment ratio is no more than 0.25.
Turning to FYQL, the enrichment ratio is no more than 0.25.
As for KVLY, the enrichment ratio is no more than 0.25.
Next, DYFP: no more than 0.25; GGLQ: 3.13.
In the case of SQHR, the enrichment ratio was no more than 0.25.
Then DLPH, with no more than 0.25; and ALTI, with 6.32.
Next, GAAW: no more than 0.25; MCEG: no more than 0.25; EVLR: no more than 0.25.
Then DKGR, with no more than 0.25; and SMVH, with 7.98.
DYLH: the enrichment ratio was no more than 0.25.
For the variant LLSW, the enrichment ratio is no more than 0.25.
For the variant MMWP, the enrichment ratio is no more than 0.25.
Turning to SWTE, the enrichment ratio is no more than 0.25.
Then QRRL, with no more than 0.25; and FRVT, with no more than 0.25; and YSVH, with no more than 0.25.
On to NQRA, for which the enrichment ratio is no more than 0.25.
For LSYH, the enrichment ratio is no more than 0.25.
Take CFVH: the enrichment ratio was no more than 0.25.
For YDIV, the enrichment ratio was no more than 0.25.
Turning to HSGM, the enrichment ratio was no more than 0.25.
As for NQLD, the enrichment ratio was no more than 0.25.
Take FTKA: the enrichment ratio was no more than 0.25.
As to YMGI, the enrichment ratio is no more than 0.25.
VRFY: the enrichment ratio is no more than 0.25.
Next, RDHF: no more than 0.25.
Next, EKDL: no more than 0.25.
Regarding MFGP, the enrichment ratio is no more than 0.25.
Next, VTGY: no more than 0.25; IRTF: no more than 0.25.
Then EIVV, with no more than 0.25.
With IDPK, the enrichment ratio was no more than 0.25.
On to KCLL, for which the enrichment ratio is no more than 0.25.
Next, YACC: no more than 0.25.
Consider RHAY, for which the enrichment ratio was no more than 0.25.
Next, NGGC: no more than 0.25; LEQH: no more than 0.25.
As for RYRS, the enrichment ratio was no more than 0.25.
For VTHV, the enrichment ratio is no more than 0.25.
Turning to MEFN, the enrichment ratio is 7.67.
For WRFQ, the enrichment ratio was no more than 0.25.
In the case of FTEK, the enrichment ratio came to 3.82.
On to RDMM, for which the enrichment ratio was no more than 0.25.
Next, QHCD: no more than 0.25.
In the case of LEAL, the enrichment ratio is no more than 0.25.
Next, FDSC: no more than 0.25; YTCM: 11.5; YPTY: no more than 0.25.
Take LLCP: the enrichment ratio was no more than 0.25.
On to AEPG, for which the enrichment ratio is no more than 0.25.
Next, ERRC: no more than 0.25; LHPN: no more than 0.25.
With HQVA, the enrichment ratio is no more than 0.25.
With ADKS, the enrichment ratio is no more than 0.25.
Turning to HTHQ, the enrichment ratio is no more than 0.25.
For SVQA, the enrichment ratio was no more than 0.25.
As for AMTG, the enrichment ratio is 2.78.
With MILY, the enrichment ratio was found to be 0.599.
For the variant FNPP, the enrichment ratio was no more than 0.25.
Consider EDHV, for which the enrichment ratio is no more than 0.25.
Consider MNSH, for which the enrichment ratio is no more than 0.25.
On to PEHV, for which the enrichment ratio is no more than 0.25.
Next, EPVH: no more than 0.25; EKVE: no more than 0.25; TRAG: no more than 0.25.
As to PEFS, the enrichment ratio was no more than 0.25.
Then SSQQ, with 6.12; and DTGN, with no more than 0.25; and KFWM, with no more than 0.25.
As to YSTP, the enrichment ratio is no more than 0.25.
Next, DAPQ: no more than 0.25; WISI: no more than 0.25; STTG: 7.62.
With ARQP, the enrichment ratio was no more than 0.25.
Take PWIG: the enrichment ratio was no more than 0.25.
With ESVA, the enrichment ratio is no more than 0.25.
On to KFCQ, for which the enrichment ratio was no more than 0.25.
